These results are taken from the supplement of paper PMC10369915.

The chains are these.
B1: GLB1_Y552_G554E (peptide)
chain: TLPAFYMENFS
B2: GLB1_Y488_K493N (peptide)
chain: VNYGAYINDFN
B3: GPC3_Y299_YF (peptide)
chain: KFWREYILSLE
B4: GOLGA5_Y62 (peptide)
chain: GPKSTYISSAA
B5: GOLGA4_Y1551 (peptide)
chain: EVLKNYNQQKD
B6: GNE_Y22 (peptide)
chain: CNRADYSKLAP
B7: GLB1_Y485_N484K (peptide)
chain: MGRVKYGAYIN
B8: GLI3_Y104_T107M (peptide)
chain: EPSVPYRGMVF
B9: GLUD1_Y512_H507Y (peptide)
chain: YSGLAYTMERS
B10: GNAS_Y391_L388R (peptide)
chain: MHRRQYELLGG
B11: GLB1_Y488_D491Y (peptide)
chain: VNYGAYINYFK
B12: GNAQ_Y356_E355D (peptide)
chain: LNLKDYNLVGG
B13: GPC3_Y299 (peptide)
chain: KYWREYILSLE
B14: GLB1_Y552 (peptide)
chain: TLPAFYMGNFS
B15: GOLGA4_Y1551_N1552S (peptide)
chain: EVLKNYSQQKD
B16: GOLGA5_Y62_A67G (peptide)
chain: GPKSTYISSAG
B17: GLB1_Y485_R482C (peptide)
chain: MGCVNYGAYIN
B18: GLS_Y249 (peptide)
chain: GKVADYIPQLA
B19: GPATCH8_Y1038_R1043Q (peptide)
chain: SQSPHYFRSGQ

The list shows a part of the results. No stated cut-off is given here; in the data, active = 3.2 or more and inactive = the rest. Most of these values are background signal.
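Further: displayed peptides selected on beads carrying the immobilized SH2 domain, with library peptides lacking any tyrosine serving as negative controls.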

One assay has as its target SHP2 C-SH2 domain E139D. In words: enrichment score (SH2-bound / input frequency) (ratio); bacterial display of known human phosphotyrosine sites (pTyr-Var adds point mutants) read by sequencing; higher = stronger binding; tyrosines were phosphorylated by kinases first. As to conditions: peptide library: pTyr-Var.
Turning to B1, the enrichment score was inactive: 0.93.

With B2, the enrichment score was inactive: 1.26.

B3: the enrichment score was active: 3.79.

As for B4, the enrichment score was inactive: 0.508.

As to B5, the enrichment score is inactive: 0.728.

B6: the enrichment score is inactive: 0.766.

B7: the enrichment score is inactive: 2.07.

As to B8, the enrichment score was inactive: 0.562.

For B9, the enrichment score is inactive: 0.952.

As for B10, the enrichment score is inactive: 0.649.

In the case of B11, the enrichment score is inactive: 1.81.

Regarding B12, the enrichment score is inactive: 0.794.

As to B13, the enrichment score is active: 3.49.

As to B14, the enrichment score is inactive: 1.38.

With B15, the enrichment score is inactive: 0.73.

For B16, the enrichment score is inactive: 0.624.

Take B17: the enrichment score was inactive: 0.909.

Regarding B18, the enrichment score was inactive: 0.937.

On to B19, for which the enrichment score was inactive: 0.68.

The next assay deals with SHP2 C-SH2 domain wild-type. The description is as above. As to conditions: peptide library: pTyr-Var.
Turning to B1, the enrichment score is inactive: 1.16.

For the molecule B2, the enrichment score is inactive: 1.08.

B3: the enrichment score was active: 3.62.

As to B4, the enrichment score was inactive: 0.506.

Consider B5, for which the enrichment score is inactive: 1.08.

As for B6, the enrichment score was inactive: 0.982.

Consider B7, for which the enrichment score is inactive: 2.04.

For B8, the enrichment score was inactive: 0.744.

For the molecule B9, the enrichment score is inactive: 1.18.

For B10, the enrichment score is inactive: 0.44.

On to B11, for which the enrichment score was inactive: 1.96.

As to B12, the enrichment score is inactive: 0.654.

Turning to B13, the enrichment score was active: 3.25.

Turning to B14, the enrichment score is inactive: 1.04.

With B15, the enrichment score is inactive: 0.595.

Take B16: the enrichment score was inactive: 0.595.

With B17, the enrichment score is inactive: 1.01.

Consider B18, for which the enrichment score was inactive: 0.9.

In the case of B19, the enrichment score was inactive: 0.573.

In the next assay the target is SHP2 N-SH2 domain L43F. Described as above. To be noted: peptide library: pTyr-Var.
Turning to B1, the enrichment score is inactive: 1.22.

For the molecule B2, the enrichment score was inactive: 1.42.

On to B3, for which the enrichment score was active: 3.93.

Consider B4, for which the enrichment score was inactive: 0.562.

With B5, the enrichment score is inactive: 0.835.

Turning to B6, the enrichment score is inactive: 0.694.

Regarding B7, the enrichment score is inactive: 2.05.

Regarding B8, the enrichment score is inactive: 0.714.

On to B9, for which the enrichment score is inactive: 0.716.

Take B10: the enrichment score was inactive: 0.723.

In the case of B11, the enrichment score is inactive: 1.14.

Take B12: the enrichment score is inactive: 0.775.

As for B13, the enrichment score is inactive: 3.19.

For the molecule B14, the enrichment score is inactive: 1.14.

With B15, the enrichment score is inactive: 0.673.

In the case of B16, the enrichment score is inactive: 0.621.

As to B17, the enrichment score was inactive: 1.04.

Turning to B18, the enrichment score was inactive: 0.775.

As to B19, the enrichment score was inactive: 0.496.

The next assay deals with SHP2 N-SH2 domain T42A. The assay is described as above. To be noted: peptide library: pTyr-Var.
With B1, the enrichment score is inactive: 0.93.

As to B2, the enrichment score is inactive: 2.64.

Turning to B3, the enrichment score is inactive: 2.89.

Consider B4, for which the enrichment score was inactive: 0.429.

Turning to B5, the enrichment score is inactive: 0.731.

As to B6, the enrichment score is inactive: 0.874.

On to B7, for which the enrichment score was inactive: 1.75.

As for B8, the enrichment score was inactive: 0.54.

Take B9: the enrichment score was inactive: 0.671.

Regarding B10, the enrichment score was inactive: 0.588.

B11: the enrichment score was inactive: 2.17.

In the case of B12, the enrichment score was inactive: 0.856.

Regarding B13, the enrichment score is inactive: 2.92.

Regarding B14, the enrichment score is inactive: 1.4.

In the case of B15, the enrichment score was inactive: 0.57.

As to B16, the enrichment score was inactive: 0.562.

In the case of B17, the enrichment score was inactive: 0.885.

As to B18, the enrichment score was inactive: 0.605.

As to B19, the enrichment score is inactive: 0.754.

The next assay deals with SHP2 N-SH2 domain T52S. The assay is described as above. As to conditions: peptide library: pTyr-Var.
Turning to B1, the enrichment score was inactive: 0.958.

Take B2: the enrichment score is inactive: 1.14.

Regarding B3, the enrichment score was active: 3.69.

With B4, the enrichment score is inactive: 0.468.

As to B5, the enrichment score is inactive: 1.09.

Turning to B6, the enrichment score is inactive: 0.892.

Consider B7, for which the enrichment score is inactive: 1.69.

Regarding B8, the enrichment score was inactive: 0.575.

Take B9: the enrichment score is inactive: 0.82.

Turning to B10, the enrichment score is inactive: 0.72.

As to B11, the enrichment score is inactive: 1.57.

For the molecule B12, the enrichment score is inactive: 0.751.

B13: the enrichment score is inactive: 3.04.

Regarding B14, the enrichment score was inactive: 1.37.

For the molecule B15, the enrichment score was inactive: 0.705.

Turning to B16, the enrichment score was inactive: 0.709.

B17: the enrichment score is inactive: 0.896.

For the molecule B18, the enrichment score is inactive: 0.834.

As for B19, the enrichment score is inactive: 0.625.

For a further assay, the target named is SHP2 N-SH2 domain wild-type. Described as above. As to conditions: peptide library: pTyr-Var.
With B1, the enrichment score was inactive: 1.19.

B2: the enrichment score is inactive: 1.33.

On to B3, for which the enrichment score was active: 3.72.

B4: the enrichment score is inactive: 0.511.

For B5, the enrichment score was inactive: 0.876.

As to B6, the enrichment score is inactive: 1.12.

Take B7: the enrichment score was inactive: 2.

As for B8, the enrichment score was inactive: 0.621.

As to B9, the enrichment score is inactive: 0.792.

For the molecule B10, the enrichment score is inactive: 0.591.

B11: the enrichment score was inactive: 1.63.

For the molecule B12, the enrichment score is inactive: 0.702.

On to B13, for which the enrichment score is inactive: 2.87.

As to B14, the enrichment score was inactive: 1.05.

With B15, the enrichment score is inactive: 0.776.

Take B16: the enrichment score is inactive: 0.487.

B17: the enrichment score is inactive: 1.44.

Turning to B18, the enrichment score was inactive: 0.567.

For the molecule B19, the enrichment score is inactive: 0.723.
